Measurements reported in the supplement of paper PMC5499739.
Whole data set: some 16,000 sequences, median “Z-score” near -0.37, cut for the highest 2% near 3.1. The list shows a part of the results.

test system: RBM10 RRM1-ZnF-RRM2 (GST-tagged construct); assay: RNAcompete 7-mer binding Z-score; higher = stronger binding preference
How it was run: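 Bound RNA was identified by microarray hybridisation after GST-tagged RBM10 constructs (20 pmol) had been mixed with 1.5 nmol of a designed pool of 241 399 RNAs up to 41 nt, transcribed from microarray-derived DNA templates. Binding ran for 30 min at 4°C in 1 ml Hepes pH 7.8 buffer with KCl, NaCl, glycerol, DTT, BSA and glutathione Sepharose beads, with four 2-min washes at 4°C afterwards. For every heptamer motif, a one-sided Z-score for enrichment was computed across the probes that contained it.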

Sequence	RNAcompete 7-mer binding Z-score
ACUCUGG	-0.657
UCUUGUG	-0.766
UGAAAAA	-0.347
CUGGGGA	1.32
UCGCGUU	-0.602
UUGACUG	-0.475
UAUUGUU	-0.643
UAGCCGG	-0.406
GGGAAUC	1.98
AUUAGUG	0.589
CGACGGG	2.14
AAUCAUU	-0.471
UCAGCUA	-0.646
CGUUAUU	-0.694
ACGCCCG	-0.737
CAGUUAU	-0.511
UCCCUCA	-0.712
AUUGGAU	0.876
UCGAGGG	1.93
CAUAUCG	-0.559
GGGGCUG	2.09
CCACUAA	-0.89
GCGACCC	-0.624

Sequence	RNAcompete 7-mer binding Z-score
AAGGUUG	3.13
GCCGCGA	-0.326
AACAUUU	-0.785
CGAUCAU	-0.555
CGACUAU	-0.832
GCUGGUC	-0.0561
GACCGGG	1.36
ACGCUGA	-0.497
GCUACAA	-0.318
UUAGCCC	-0.883
GCCCACA	-0.744
GUUGUCG	-0.216
UCGUGGA	1.05
GGAACAG	2.44
CUUGAUA	-0.785
CAUUAUU	-0.744
CUUUGUA	-0.839
CGCGCUA	-0.533
CAUAUCU	-0.679
GUGUUCU	-0.65
UGUGACC	-0.176
UGGGAAU	2.42
ACAGCAA	-0.0962

Sequence	RNAcompete 7-mer binding Z-score
GAUUCCG	-0.595
AGCGUUG	0.141
UCGUCAU	-0.431
CGGUCUC	-0.664
UCUCAUU	-0.879
CGUUUUC	-0.701
GUCGGCA	0.425
CAAGUAG	0.53
CACAGUU	-0.624
UAGAUCA	-0.129
CGCUGUC	-0.734
ACUGAUG	-0.154
UACUUUU	-0.85
AAAGUUG	0.0859
UGAAGCU	-0.191
GAGUCCA	-0.34
AGCUAUU	-0.646
AUUUAUG	-0.391
AUCAAUU	-0.672
GAUGAGU	1.01
CACGGCG	0.0349
UCCCUAA	-0.839
UCCCGUC	-0.679

Sequence	RNAcompete 7-mer binding Z-score
GCCUCGU	-0.781
AGUGAGA	1.35
CCUUGUU	-0.901
CACUCUG	-0.967
GGUGUGG	3.86
GAACGGA	2.36
CUCGACU	-0.806
UUUAGGU	0.0932
CGCGGAA	0.319
GGAUAUU	0.956
AUGCUCA	-0.766
AAUGGGG	4.38
AGGACUU	-0.275
UCACCGG	-0.14
GGUGACG	2.24
AAAAAAG	0.159
UGCACCU	-0.628
AGUAACG	0.166
GUAGGGA	4.26
GGCGUUA	0.694
AAGUCGC	-0.406
GCGCAGU	0.0823
GCUACCG	-0.366
